Laboratory results as given in publication PMC4336329 (PLoS ONE, 2015).
Out of some 310,000 compounds screened, about 2,200 (0.71%) showed an effect of 50% or more. The effect is printed as a negative number. This is one part of the list.

Biological target: human ether-à-go-go-related gene (hERG) potassium channel (human, UniProt Q12809)
Assay: primary screen, population patch clamp on CHO cells stably expressing hERG

human ether-à-go-go-related gene (hERG) potassium channel, sequence (Q12809 whole entry, looked up): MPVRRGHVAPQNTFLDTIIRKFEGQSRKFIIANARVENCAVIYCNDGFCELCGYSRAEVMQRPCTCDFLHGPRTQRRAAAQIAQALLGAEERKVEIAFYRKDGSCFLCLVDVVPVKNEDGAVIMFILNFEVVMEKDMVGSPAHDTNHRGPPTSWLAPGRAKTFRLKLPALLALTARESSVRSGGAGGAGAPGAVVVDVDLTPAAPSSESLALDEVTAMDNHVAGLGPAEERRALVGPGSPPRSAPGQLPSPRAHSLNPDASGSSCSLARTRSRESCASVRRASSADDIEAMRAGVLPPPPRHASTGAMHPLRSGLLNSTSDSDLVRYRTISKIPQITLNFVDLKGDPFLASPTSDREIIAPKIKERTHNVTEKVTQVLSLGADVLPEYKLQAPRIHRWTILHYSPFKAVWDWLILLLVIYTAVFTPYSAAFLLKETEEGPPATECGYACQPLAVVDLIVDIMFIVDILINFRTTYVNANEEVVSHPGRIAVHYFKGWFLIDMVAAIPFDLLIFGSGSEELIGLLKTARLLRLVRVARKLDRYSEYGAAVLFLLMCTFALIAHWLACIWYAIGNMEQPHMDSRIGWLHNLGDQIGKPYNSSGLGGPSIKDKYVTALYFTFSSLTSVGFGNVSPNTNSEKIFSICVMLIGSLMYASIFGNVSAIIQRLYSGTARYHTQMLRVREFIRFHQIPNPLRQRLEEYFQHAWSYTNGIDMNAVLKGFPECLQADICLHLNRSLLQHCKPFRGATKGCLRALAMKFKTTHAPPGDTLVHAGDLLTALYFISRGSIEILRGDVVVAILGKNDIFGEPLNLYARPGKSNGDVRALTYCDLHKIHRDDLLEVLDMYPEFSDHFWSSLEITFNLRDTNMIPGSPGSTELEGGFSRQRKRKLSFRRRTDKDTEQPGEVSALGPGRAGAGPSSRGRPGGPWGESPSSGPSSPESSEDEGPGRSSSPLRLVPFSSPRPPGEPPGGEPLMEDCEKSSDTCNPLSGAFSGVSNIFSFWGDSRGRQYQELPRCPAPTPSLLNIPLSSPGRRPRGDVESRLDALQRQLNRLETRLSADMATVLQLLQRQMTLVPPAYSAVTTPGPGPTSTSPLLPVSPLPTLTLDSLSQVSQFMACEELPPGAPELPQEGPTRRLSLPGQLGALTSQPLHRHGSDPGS

| SMILES | hERG current change (%, negative = inhibition) at 1uM [%] |
| --- | --- |
| CCc1ccc(OCC(=O)N2CCN(Cc3ccc4c(c3)OCO4)CC2)cc1 | 7.15 |
| N/C(=N\OC(=O)c1ccc2c(c1)OCO2)c1cccc([N+](=O)[O-])c1 | 12.7 |
| CSCC[C@H](NC(=O)C1CCC(CNC(=O)[C@@H](N)Cc2ccccc2)CC1)C(=O)O.Cl (some centres unmarked) | 12.3 |
| CCCn1c(N)c(C(=O)CSc2nnc(-c3ccoc3C)n2C)c(=O)n(C)c1=O | 5.38 |
| Cc1cc2cc(CNC(=O)Cc3ccc([N+](=O)[O-])cc3)ccc2[nH]1 | -1.9 |
| Cc1ccc(S(=O)(=O)NCc2ccccc2)cc1C(=O)N(C)Cc1ccc(F)cc1 | -0.769 |
| Cc1ccc(/C=C/C(=O)Nc2cccc(S(=O)(=O)N3CCOCC3)c2)o1 | 2.3 |
| CCOc1cc2[nH]c(=S)n(CCCN3CCOCC3)c(=O)c2cc1OCC | -2.09 |
| NS(=O)(=O)c1ccc(CCNC(=O)CN2CCC(Cc3ccccc3)CC2)cc1 | -1.53 |
| COc1ccc(NC(=O)C2CCCN2C(=O)Nc2ccccc2)cc1OC (centres unmarked) | 11.4 |
| N#Cc1nc(N2CCCC2)nc(N2CCCC2)n1 | -2.63 |
| CC(C)(C)OC(=O)N1CCC(CNC(=O)Nc2ccccc2)CC1 | 13.7 |
| COc1ccccc1N1CCN(C(=O)/C=C/c2ccccc2)CC1 | -3.71 |
| CNS(=O)(=O)/C=C/c1ccccc1 | 7.05 |
| O=C(CN1CCN(Cc2ccc(F)cc2)CC1)Nc1nc2ccccc2s1 | -54 |
| CC1CCN(C(=O)CSc2ccc(-c3cccnc3)nn2)CC1 | 14.5 |
| Cc1ccc(OCC(=O)N2CCN(c3nnc(-c4ccc(C)cc4)c4ccccc34)CC2)cc1 | -8.43 |
| O=S(=O)(c1ccc2[nH]ccc2c1)N1CCCCCC1 | 15.1 |
| N#Cc1ccccc1NC(=O)COC(=O)c1ccc2c(c1)OCO2 | 14.1 |
| CN(Cc1cnn(Cc2ccccc2)c1)C(=O)c1cccc(S(=O)(=O)N2CCOCC2)c1 | 15.8 |
| COc1ccc(/C=C2\C(=N)N3N=C(CC(=O)N4CCCCC4)SC3=NC2=O)cc1 | 1.73 |
| CCc1ccccc1NC(=O)CN1CCN(C(=O)CCC(=O)N2CCC(c3ccccc3)=N2)CC1 | -13.1 |

| SMILES | hERG current change (%, negative = inhibition) at 1uM [%] |
| --- | --- |
| COc1cc2nc(NC(=O)c3ccccc3)[nH]c(=O)c2cc1OC | 10.9 |
| O=C(Nc1ccc(O)c2c(=O)cc(-c3ccccc3Cl)oc12)c1cccs1 | 5.25 |
| CC(=O)N1CCc2cc(S(=O)(=O)N3CCc4ccccc43)ccc21 | -9.95 |
| COc1ccc(-c2nnc(NC(=O)c3ccc(S(=O)(=O)N(C)CC4CCCO4)cc3)o2)c(OC)c1 (centres unmarked) | 15.8 |
| Cc1ccc2nc(SCC(=O)Nc3ccc4c(c3)OCCO4)[nH]c2c1 | 9.56 |
| Cn1nc(C(F)(F)F)c(/C=N/OCc2c(Cl)cccc2Cl)c1Cl | 8.36 |
| CCCCC/C=C\C/C=C\C/C=C\CCCCC(=O)O | 5.17 |
| O=C(OCc1ccc(Br)cc1)c1cccc(S(=O)(=O)N2CCCC2)c1 | 8.56 |
| CCC(=O)Nc1ccc(S(=O)(=O)NCC2CCCO2)cc1 (centres unmarked) | 7.79 |
| CCN(CC)S(=O)(=O)c1ccc(N2CCOCC2)c(NC(=O)C2CCCO2)c1 (centres unmarked) | 7.25 |
| C=CCC(C(=O)NC(C)c1ccccc1)C(=O)NC(C)c1ccccc1 (centres unmarked) | -0.302 |
| C=CCOc1c2ccc(C(=O)NCc3ccc(C)cc3)cc2nn1C | 12.8 |
| Cc1ccc(/C=C/C(=O)N2CC(C)CC(C)C2)o1 (centres unmarked) | 6.28 |
| CCCCn1c(O)c(C=NCc2ccc3c(c2)OCO3)c(=O)[nH]c1=O | 7.43 |
| COCCn1c(CCC(=O)O)nc2c1c(=O)[nH]c(=O)n2CC(C)C | 13.9 |
| O=C(NNC(=O)c1cc([N+](=O)[O-])ccc1Cl)c1cccnc1 | 18.2 |
| COc1ccc(N(CC(=O)NC2CCCCCC2)S(=O)(=O)c2ccc(C)cc2)cc1OC | 12.3 |
| COc1ccc(S(=O)(=O)CCC(=O)Nc2c(C)n(C)n(-c3ccccc3)c2=O)cc1 | 3.34 |
| CN(c1ccccc1)S(=O)(=O)c1cccc(NC(=O)c2ccc3ncsc3c2)c1 | 10.9 |
| Cc1ccccc1NS(=O)(=O)c1ccc(OCC(=O)NCc2ccccn2)cc1 | 3.12 |
| Cn1c(SCC(=O)NC2CCCC2)nnc1C(F)(F)F | 8.54 |
| Cc1ccccc1CSc1nccn1-c1ccccc1 | -0.649 |
